The values below come from the supplement of paper PMC10600219.

Molecules are shown by their SMILES. Structures can show the parent of a compound that is named as a salt. The full ranking holds about 2,800 compounds; the median of “cell viability relative to vehicle” is about 0.98, and the lowest 2% start at about 0.45. This is one part of the list.

The test system of the assay is NCI-H2228 alectinib-DTP. Briefly: cell viability relative to vehicle (fraction of vehicle); NCI-H2228 is an ALK-positive lung cancer line and DTP means drug-tolerant persister; higher = less growth inhibition. The settings on record: 100 nM; treatment time 6 days. The procedure, abridged: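 Each value is viability relative to vehicle-treated cells, measured as ATP with the CellTiter-Glo 3D Cell Viability Assay. Parental NCI-H2228 cells and drug-tolerant persisters (1000 nM targeted drug, 13 days) in 384-well plates received the 3114-agent TargetMol anti-cancer compound library at 100 nM, or DMSO, and were read 6 days later.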
As for `CCOC(=O)c1ccc(C#Cc2ccc3c(c2)C(C)(C)CCS3)nc1` [Tazarotene], the cell viability was determined as 0.714.

As to `CC(C)(C)C#Cc1cc(N(C(=O)[C@H]2CC[C@H](C)CC2)[C@H]2CC[C@H](O)CC2)c(C(=O)O)s1` [Lomibuvir], the cell viability is 1.06. Then `Oc1ccc(-c2cc(=S)ss2)cc1` [Desmethylanethol trithione], with 0.964. To `CCCOc1ccc(CCc2nc3cc(-c4c(C)noc4C)ccc3n2CCN2CCOCC2)cc1` [PF-CBP1 hydrochloride] belongs 1.07. Then `O=C(O)/C=C/c1ccccc1` [Cinnamic acid], with 1.22; and `CC(C)=C1CC[C@@H](C)CC1=O` [Pulegone], with 1.12; and `COc1cc2ncnc(Nc3ccc(Oc4ccccc4)cc3)c2cc1OC` [Src Inhibitor 1], with 0.933. `Nc1ccc(S(N)(=O)=O)cc1` [Sulfanilamide] returned a cell viability of 1.05.

`O=C(COCC(=O)N1CCN(C(c2ccccc2)c2ccccc2)CC1)Nc1ccc(Cl)cc1C(=O)O` [TM5275 sodium]: the cell viability worked out at 1.08. To `Cc1ccc(NC(=S)NNc2c([N+](=O)[O-])cc(C(F)(F)F)cc2[N+](=O)[O-])cc1Cl` belongs 0.982. For the compound `COc1c(O)cc(O)c2c(=O)cc(-c3ccccc3)oc12` [Wogonin], the cell viability was determined as 0.937. Then `CCOc1nc2cccc(C(=O)OC(C)OC(=O)OC3CCCCC3)c2n1Cc1ccc(-c2ccccc2-c2nn[nH]n2)cc1` (stereo unspecified) [Candesartan Cilexetil], with 0.839; and `COc1ccc(-c2oc3c(CC=C(C)C)c(O)cc(O)c3c(=O)c2O)cc1` [Icaritin], with 1.05; and `O=C(CCN1CCN(C(=O)OCc2cc(Cl)cc(Cl)c2)CC1)c1ccc2[nH]c(=O)oc2c1`, with 1.12. To `COc1cc2c(cc1OC)-c1cc3nc4ccccc4nc3n1C(C)(C)C2` belongs 1.02; to `COc1ccccc1OCCNCC(O)COc1cccc2[nH]c3ccccc3c12` (stereo unspecified) [Carvedilol], 1.03. In turn, `COc1ccccc1OCCNCC(O)COc1cccc2[nH]c3ccccc3c12` (stereo unspecified) [Carvedilol phosphate] had a cell viability of 0.976. Then `COc1ccc(CCCOC(Cn2ccnc2)c2ccc(OC)cc2)cc1` (stereo unspecified), with 1.26; and `COc1cc(-c2nc3ccccc3s2)ccc1O`, with 1.01.

For `C[C@H]1CC[C@@]2(OC1)O[C@H]1C[C@H]3[C@@H]4CC[C@@H]5C[C@@H](O[C@@H]6O[C@H](CO)[C@H](O)[C@H](O)[C@H]6O[C@@H]6O[C@H](CO)[C@@H](O)[C@H](O)[C@H]6O)CC[C@]5(C)[C@H]4CC[C@]3(C)[C@H]1[C@@H]2C` [Timosaponin AIII], the cell viability is 1.1. Then `COc1ccc(C(C)=O)c(O)c1` [Paeonol], with 1.21. Then `COc1ccc(-n2nc(C(N)=O)c3c2C(=O)N(c2ccc(N4CCCCC4=O)cc2)CC3)cc1` [Apixaban], with 0.853. On to `Nc1cccc(-c2cc3c(Oc4cccc(O)c4)ncnc3[nH]2)c1`, for which the cell viability was determined as 0.969.

On to `CC(C)[C@H]1CC[C@H](C(=O)N[C@H](Cc2ccccc2)C(=O)O)CC1` [Nateglinide], for which the cell viability came out at 0.92. Then `COc1c(O)cc2c(c1O)[C@@H]1O[C@H](CO)[C@@H](O)[C@H](O)[C@H]1OC2=O` [Bengenin], with 1.23.

On to `COc1cc(N2CCC(N3CCN(C)CC3)CC2)ccc1Nc1ncc(Cl)c(Nc2ccccc2S(=O)(=O)C(C)C)n1`, for which the cell viability was determined as 0.942. To `CC1CCc2cc(F)cc3c(=O)c(C(=O)O)cn1c23` (stereo unspecified) [Flumequine] belongs 1; to `CCN1CCCC1CNC(=O)c1cc(S(=O)(=O)CC)c(N)cc1OC` (stereo unspecified) [Amisulpride], 0.952. To `CCCS(=O)(=O)Nc1ccc(F)c(C(=O)c2c[nH]c3ncc(Cl)cc23)c1F` belongs 0.899; to `CNC(=O)CN1CCC(Oc2cc3c(Nc4cccc(Cl)c4F)ncnc3cc2OC)CC1` [Sapitinib], 0.759. To `COc1ccc2cc(Br)ccc2c1` [2-Bromo-6-methoxynaphthalene] belongs 1.2.

The compound `O=C(Nc1cc(Cl)cc2c1[nH]c1cnccc12)c1cccnc1` yielded a cell viability of 1.1. Then `c1cnc(NCc2ccc(CNc3ncccn3)cc2)nc1`, with 0.914; and `S=P(N1CC1)(N1CC1)N1CC1` [Triethylenethiophosphoramide], with 1. To `CN1CCN(c2ccc(C(=O)Nc3n[nH]c4ccc(Cc5cc(F)cc(F)c5)cc34)c(NC3CCOCC3)c2)CC1` [Entrectinib] belongs 0.927; to `Clc1ccc2c(NCCNc3ccnc4cc(Cl)ccc34)ccnc2c1`, 0.949; to `CN(C)c1ccc(C2Nc3ccc4ccccc4c3C3=C2C(=O)CC(C)(C)C3)cc1Br` (stereo unspecified) [Glutaminase C-IN-1], 0.965.

As to `COc1ccc(-c2oc3cc(OC)c(OC)c(O)c3c(=O)c2OC)cc1O` [Vitexicarpin], the cell viability worked out at 1.09. To `CC(C)C(C(=O)O)N1C(=O)C(=Cc2ccc(Br)cc2)SC1=S` (stereo unspecified) belongs 1.06; to `Nc1n[nH]c2cc(-c3ccc(=O)n(Cc4cccc(Cl)c4)c3)ccc12`, 0.954. For the compound `O=C(Nc1cccc(Cl)c1)Nc1ncc(CCNc2ncnc3ccsc23)s1` [SNS-314 Mesylate], the cell viability was found to be 0.867. To `CNC(=O)c1ccc(N2C(=S)N(c3cnc(C#N)c(C(F)(F)F)c3)C(=O)C23CCC3)cc1F` [Apalutamide] belongs 0.79; to `CCOC(=O)c1c(C)[nH]c(C=C2C(=O)Nc3ccccc32)c1C` [VEGFR2 Kinase Inhibitor I], 1.19.

As to `O=C(c1ccc(OCCN2CCCCC2)cc1)c1c(-c2ccc(O)cc2)sc2cc(O)ccc12` [Raloxifene hydrochloride], the cell viability is 0.92.

Take `O=C1c2ccccc2-c2n[nH]c3cccc1c23` [Pyrazolanthrone]: the cell viability is 1.

As for `CO[C@H]1CC[C@H](N2C(=O)CNc3ncc(-c4ccc(C(C)(C)O)nc4)nc32)CC1`, the cell viability is 0.9. To `C[C@@]12CC[C@@H]3[C@@](CC[C@H]4[C@@]3(C)CCC[C@@]4(C)C(=O)O)(CC1=O)C2` [Isosteviol] belongs 1.03; to `NS(=O)(=O)c1cc2c(cc1C(F)(F)F)NC(Cc1ccccc1)NS2(=O)=O` (stereo unspecified) [Bendroflumethiazide], 0.992. Then `COc1cc(C[C@H]2C(=O)OC[C@@H]2Cc2ccc(OC)c(OC)c2)ccc1O` [Arctigenin], with 0.985; and `CN(C)[C@@H]1CCc2[nH]c3ccc(NC(=O)c4ccc(F)cc4)cc3c2C1`, with 1.12; and `CNC(=O)c1ccccc1Sc1ccc2c(/C=C/c3ccccn3)n[nH]c2c1` [Axitinib], with 1.04.
